Counter-ions that a name gives are not always drawn. Like-named read-outs stand apart in the source and are kept apart here.
Tested on: cultured bloodstream T. brucei (strain 427)
Assay: microbe, parasite or virus in culture
Details: Trypanosoma brucei
[1] = read-out: T. brucei Alamar Blue
[2] = read-out: T. brucei Alamar Blue (% survival)
[3] = read-out: T. brucei Alamar Blue, Supplementary Table 1, compound 0.5 mM, percentage of controls in the absence of compound, mean ± SD (n=3) or SE (n=2)

Row | Structure (SMILES) | viability at 500 µM [1] [%] | other results
1 | O=C(O)c1ccc2ncccc2c1 [compound 370, quinoline‐6‐carboxylic acid] | 107 ± 8.1 | –
2 | CC(C)(C)OC(=O)Nc1cccs1 [compound 620, tert-butyl N-(2-thienyl)carbamate] | 40.1 ± 17.6 | viability at 500 µM [2]: 40.1 ± 17.6%
3 | Nc1ccc(N2CCOCC2)cc1 [compound 435, 4‐morpholinoaniline] | 21.3 ± 3.7 | –
4 | O=C(O)Cc1ccccc1O [compound 201, 2‐(2‐hydroxyphenyl)acetic acid] | 87.4 ± 8.7 | –
5 | N#Cc1cccc(-n2ccnc2)c1 [compound 339, 3‐(1H‐imidazol‐1‐yl)benzonitrile] | 72.1 ± 7.8 | –
6 | O=C(O)Cc1coc2ccccc12 [compound 410, benzo[b]furan‐3‐ylacetic acid] | 55.1 ± 19.3 | –
7 | Cc1csc(CC#N)n1 [compound 126, 2-(4-methyl-1,3-thiazol-2-yl)acetonitrile] | 75.3 ± 15.4 | viability at 500 µM [2]: 75.3 ± 15.4%
8 | Cc1cc(C)on1 [compound 4, 3,5‐dimethylisoxazole] | 117 ± 5.1 | –
9 | Nc1ccc(Cn2ccnc2)cc1 [compound 375, 4‐(1H‐imidazol‐1‐ylmethyl)aniline] | 96.3 ± 7.6 | –
10 | O=C(C1CCNCC1)N1CCCC1 [compound 469, 4‐piperidinyl(1‐pyrrolidinyl)methanone] | 99.9 ± 7.5 | –
11 | OCc1ccc(-c2ccsc2)cc1 [compound 545, (4‐thien‐3‐ylphenyl)methanol] | 60.7 ± 9.2 | –
12 | Cc1csc(C(N)=O)c1 [compound 134, 4‐methylthiophene‐2‐carboxamide] | 73.7 ± 20.6 | –
13 | OCC1Cc2ccccc2O1 (stereo not drawn) [compound 187, 2,3‐dihydro‐1‐benzofuran‐2‐ylmethanol] | 66.8 ± 21.8 | –
14 | CN1CCN(Cc2ccccc2N)CC1 [compound 670, 2‐[(4‐methylpiperazin‐1‐yl)methyl]aniline] | 52.6 ± 17.6 | –
15 | N#CCc1nc2ccccc2s1 [compound 387, 2‐(1,3‐benzothiazol‐2‐yl)acetonitrile] | 36 ± 8.3 | –
16 | Nc1ccccc1CN1CCOCC1 [compound 570, 2‐(morpholin‐4‐ylmethyl)aniline] | 123 ± 10.8 | –
17 | Cc1nc(-c2ccc(C#N)cc2)cs1 [compound 625, 4‐(2‐methyl‐1,3‐thiazol‐4‐yl)benzonitrile] | 83.5 ± 5.3 | –
18 | CCOC(=O)c1[nH]c(C)cc1C [compound 330, ethyl 3,5‐dimethyl‐1H‐pyrrole‐2‐carboxylate] | 90.7 ± 1.7 | –
19 | Cc1cc(N)[nH]n1 [compound 6, 3‐methyl‐1H‐pyrazol‐5‐amine] | 94.9 ± 3.6 | –
20 | FC(F)(F)c1nc2ccccc2[nH]1 [compound 499, 2‐(trifluoromethyl)‐1H‐benzo[d]imidazole] | 70.1 ± 5.1 | –
21 | OCc1nc2ccccc2[nH]1 [compound 169, 1H‐benzimidazol‐2‐ylmethanol] | 86.5 ± 2.7 | –
22 | OCc1ccc(-c2ccncc2)cc1 [compound 488, (4‐pyrid‐4‐ylphenyl)methanol] | 89.5 ± 10.5 | –
23 | Oc1ccc(F)c(Cl)c1 [compound 160, 3‐chloro‐4‐fluorophenol] | 50.8 ± 16.5 | –
24 | O=C(O)c1ccccc1-c1cccnc1 [compound 613, 2‐pyrid‐3‐ylbenzoic acid] | 80.1 ± 7 | –
25 | O=C(O)Cc1cccnc1 [compound 381, pyridin‐3‐ylacetic acid hydrochloride] | 111 ± 15.5 | –

Row | Structure (SMILES) | viability at 500 µM [1] [%] | other results
26 | Cc1nc(-c2ccc(N)cc2)cs1 [compound 547, 4‐(2‐methyl‐1,3‐thiazol‐4‐yl)phenylamine] | 47.6 ± 17.4 | –
27 | N#CCc1ccc(O)cc1 [compound 98, 2‐(4‐hydroxyphenyl)acetonitrile] | 101.5 ± 0.9 | –
28 | O=C1N[C@@H](Cc2ccccc2)CO1 [compound 421, (S)‐4‐BENZYL‐2‐OXAZOLIDINONE] | 79.1 ± 9.8 | –
29 | Cc1csc2ncnc(Cl)c12 [compound 486, 4‐chloro‐5‐methylthieno[2,3‐d]pyrimidine] | 125 ± 5 | –
30 | Cc1cccc(N2CCNCC2)c1C [compound 549, 1‐(2,3‐dimethylphenyl)piperazine] | 25.8 ± 3.4 | –
31 | OCCc1coc2ccccc12 [compound 284, 2‐benzo[b]furan‐3‐ylethanol] | 68.3 ± 14.3 | –
32 | O=C(Nc1ccncc1)c1ccccc1 [compound 603, N1‐(4‐pyridyl)benzamide] | 82.8 ± 5 | –
33 | N#Cc1ccc(OC2CCOCC2)cc1 [compound 645, 4‐(tetrahydropyran‐4‐yloxy)benzonitrile] | 121 ± 12.5 | –
34 | CNCc1ccc(-c2ccccn2)cc1 [compound 607, N‐methyl‐N‐(4‐pyridin‐2‐ylbenzyl)amine] | 32.8 ± 7.4 | –
35 | Nc1ccc2ncsc2c1 [compound 191, 1,3‐benzothiazol‐6‐amine] | 47.7 ± 13.8 | –
36 | OCc1ccccc1Cl [compound 143, (2‐chlorophenyl)methanol] | 88.5 ± 19.7 | –
37 | Nc1cccc(-c2cccnc2)c1 [compound 346, 3‐pyridin‐3‐ylaniline] | 35.6 ± 9.3 | –
38 | Cc1cc(O)nc2ccccc12 [compound 258, 4‐methyl‐2‐quinolinol] | 92.9 ± 6.8 | –
39 | OCC1COc2ccccc2C1 (stereo not drawn) [compound 300, 3,4‐dihydro‐2H‐chromen‐3‐ylmethanol] | 73.2 ± 12.1 | –
40 | OCc1nccs1 [compound 38, 1,3‐thiazol‐2‐ylmethanol] | 87.9 ± 9 | –
41 | O=C(O)c1cc2ccccc2cn1 [compound 555, isoquinoline‐3‐carboxylic acid hydrate] | 34.9 ± 11.7 | –
42 | O=C1CC(C(=O)O)c2ccccc21 (stereo not drawn) [compound 409, 3‐oxoindane‐1‐carboxylic acid] | 119 ± 18.3 | –
43 | c1cc(-c2ccncc2)ccn1 [compound 235, 4,4'‐dipyridyl] | 95 ± 4.3 | –
44 | O=C(O)c1ccc(-c2cccnc2)cc1 [compound 612, 4‐pyrid‐3‐ylbenzoic acid] | – | viability at 500 µM [3]: 40.1 ± 12.4%
45 | N#Cc1ccc(F)cc1 [compound 51, 4‐fluorobenzonitrile] | 85.3 ± 5.2 | –
46 | Nc1cccc(-c2ccsc2)c1 [compound 404, 3‐thien‐3‐ylaniline] | 39.3 ± 5.7 | –
47 | O=C(O)c1cccc(-n2cccc2)c1 [compound 511, 3‐(1H‐pyrrol‐1‐yl)benzoic acid] | 46.2 ± 19.1 | –
48 | Nc1ccc(F)cc1F [compound 88, 2,4‐difluoroaniline] | 45.4 ± 8.9 | –
49 | O=C(O)CSc1ccc(Cl)cc1 [compound 641, 2‐[(4‐chlorophenyl)thio]acetic acid] | 129 ± 24.6 | –
50 | OCc1cc(-c2cccs2)on1 [compound 462, [5‐(2‐thienyl)‐3‐isoxazolyl]methanol] | 80.7 ± 24 | –

Row | Structure (SMILES) | viability at 500 µM [1] [%] | other results
51 | NC1CCSCC1 [compound 45, tetrahydrothiopyran‐4‐ylamine] | 103 ± 13.8 | –
52 | OCc1ccc(N2CCCC2)nc1 [compound 437, [6‐(1‐pyrrolidinyl)‐3‐pyridinyl]methanol] | 29.4 ± 4.1 | –
53 | Nc1ccc(Oc2ccccc2)nc1 [compound 507, 6‐phenoxy‐3‐pyridinamine] | 49.5 ± 6 | –
54 | Cn1cccc1C(=O)O [compound 69, 1‐methyl‐1H‐pyrrole‐2‐carboxylic acid] | 99.1 ± 18.5 | –
55 | Cc1nc(C)c(CO)s1 [compound 147, (2,4‐dimethyl‐1,3‐thiazol‐5‐yl)methanol] | 98 ± 16.2 | –
56 | NCc1ccccc1Cl [compound 136, 2‐chlorobenzylamine] | 113 ± 5.8 | –
57 | Cn1ccnc1CO [compound 34, (1‐methyl‐1H‐imidazol‐2‐yl)methanol] | 133 ± 1.6 | –
58 | OCCc1cccnc1 [compound 63, 2‐(3‐pyridyl)ethan‐1‐ol] | 84.6 ± 9.4 | –
59 | OCc1ccc(-c2cccs2)cc1 [compound 544, (4‐thien‐2‐ylphenyl)methanol] | 71.6 ± 7 | –
60 | CCN(CC)CCc1ccccn1 [compound 443, N,N‐diethyl‐N‐[2‐(2‐pyridyl)ethyl]amine] | 98.7 ± 8.7 | –
61 | Nc1ccc(-c2cccnc2)cc1 [compound 347, 4‐pyridin‐3‐ylaniline] | 26.4 ± 5.2 | –
62 | NCc1nc2ccccc2s1 [compound 626, 1,3-benzothiazol-2-ylmethylamine hydrochloride] | – | viability at 500 µM (read-out: T. brucei Alamar Blue (% survival), compound 0.5 mM, percentage of controls): 52.9 ± 13.9%; viability at 500 µM [3]: 52.9 ± 13.9%
63 | O=C(O)CC12CC3CC(CC(C3)C1)C2 [compound 588, 2‐(1‐adamantyl)acetic acid] | 48.1 ± 17.5 | –
64 | Cc1ccc(C#N)c(N)c1 [compound 97, 2-amino-4-methylbenzonitrile] | 72.2 ± 14.4 | viability at 500 µM [2]: 72.2 ± 14.4%
65 | O=C(O)c1ccc(-c2ccccc2)nc1 [compound 610, 6‐phenylnicotinic acid] | 78.4 ± 13.4 | –
66 | OCc1cccc2c1OCC2 [compound 186, 2,3-Dihydrobenzo[b]furan-7-methanol] | 33.8 ± 5.2 | viability at 500 µM [2]: 33.8 ± 5.2%; IC50 (read-out: T. brucei ED50, ED50 ± SD (n = 4)): 370 ± 40 µM
67 | COC(=O)c1ccccc1F [compound 220, methyl 2‐fluorobenzoate] | 108 ± 10.5 | –
68 | Cn1nc(-c2ccccc2)cc1N [compound 376, 1‐methyl‐3‐phenyl‐1H‐pyrazol‐5‐amine] | 62.2 ± 5.1 | –
69 | Nc1cc(F)cc(F)c1 [compound 89, 3,5‐difluoroaniline] | 112 ± 10.7 | –
70 | OCc1csc2ccc(Cl)cc12 [compound 608, (5‐chloro‐1‐benzothiophen‐3‐yl)methanol] | 99 ± 26.1 | –
71 | c1cnc2c(c1)OCCN2 [compound 118, 3,4‐dihydro‐2H‐pyrido[3,2‐b][1,4]oxazine] | 75.6 ± 3.7 | –
72 | OCc1ccc(N2CCCC2)cc1 [compound 427, [4‐(1‐pyrrolidinyl)phenyl]methanol] | 27.3 ± 5.7 | –
73 | Cn1ccc2cc(C(=O)O)ccc21 [compound 394, 1‐methyl‐1H‐indole‐5‐carboxylic acid] | 111.3 ± 0.3 | –
74 | Cc1ncsc1C(=O)O [compound 145, 4‐Methyl‐thiazole‐5‐carboxylic acid] | 115 ± 9.7 | –
75 | CNCc1ccncc1 [compound 56, N‐methyl‐N‐(4‐pyridinylmethyl)amine] | 86.8 ± 7.8 | –

— publication PMC3199943, “Screening the MayBridge Rule of 3 Fragment Library for Compounds That Interact with the Trypanosoma brucei myo-Inositol-3-Phosphate Synthase and/or Show Trypanocidal Activity” (Molecular Biology International, 2011)
